For four molecules, binding result and EC50 results are on record in patent publication US20250051755A1 (Dana-Farber, published 2025).

The target of one experiment is T1, Her2 (UniProt P04626).
T1 construct: whole, on cells; Also precipitated from SKOV3 whole cell extracts; also called Erbb2
Description: flow cytometry on Her2 induced OVCAR8 cells, loss of binding on Her2 knockdown in SKOV3; immunoprecipitation of Her2 from SKOV3 extracts. (In general: In flow cytometry, cells or beads pass a laser one at a time.)

The target of experiment [1] is T2, recombinant human BCAM (human, UniProt P50895 32-547, limits assumed).
T2 construct: Bought protein coated on ELISA plates; also called recombinant BCAM (Sino); untreated recombinant human BCAM
T2 sequence (looked up): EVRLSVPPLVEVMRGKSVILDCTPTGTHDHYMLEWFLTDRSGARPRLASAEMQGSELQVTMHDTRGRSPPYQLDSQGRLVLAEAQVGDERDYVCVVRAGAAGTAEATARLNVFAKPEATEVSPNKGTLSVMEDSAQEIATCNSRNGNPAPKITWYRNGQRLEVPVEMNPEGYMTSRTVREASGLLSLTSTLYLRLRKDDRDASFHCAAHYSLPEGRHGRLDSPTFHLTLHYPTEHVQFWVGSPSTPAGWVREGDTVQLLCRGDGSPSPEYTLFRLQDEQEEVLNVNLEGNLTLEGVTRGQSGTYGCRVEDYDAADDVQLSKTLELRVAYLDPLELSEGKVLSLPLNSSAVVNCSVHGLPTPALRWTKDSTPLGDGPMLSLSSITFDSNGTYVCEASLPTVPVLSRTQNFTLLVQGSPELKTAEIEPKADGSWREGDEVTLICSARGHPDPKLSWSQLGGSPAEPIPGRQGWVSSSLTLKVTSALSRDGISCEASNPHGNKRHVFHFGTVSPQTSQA
Description: ELISA on coated recombinant BCAM; given as affinity. On the technique in general: An ELISA detects its analyte on a solid surface through an enzyme-linked reagent.

For experiment [2], the target named is T3, BCAM (human, UniProt P50895 32-628).
T3 construct: whole, on cells; also called Basal Cell Adhesion Molecule; human BCAM
T3 sequence (looked up): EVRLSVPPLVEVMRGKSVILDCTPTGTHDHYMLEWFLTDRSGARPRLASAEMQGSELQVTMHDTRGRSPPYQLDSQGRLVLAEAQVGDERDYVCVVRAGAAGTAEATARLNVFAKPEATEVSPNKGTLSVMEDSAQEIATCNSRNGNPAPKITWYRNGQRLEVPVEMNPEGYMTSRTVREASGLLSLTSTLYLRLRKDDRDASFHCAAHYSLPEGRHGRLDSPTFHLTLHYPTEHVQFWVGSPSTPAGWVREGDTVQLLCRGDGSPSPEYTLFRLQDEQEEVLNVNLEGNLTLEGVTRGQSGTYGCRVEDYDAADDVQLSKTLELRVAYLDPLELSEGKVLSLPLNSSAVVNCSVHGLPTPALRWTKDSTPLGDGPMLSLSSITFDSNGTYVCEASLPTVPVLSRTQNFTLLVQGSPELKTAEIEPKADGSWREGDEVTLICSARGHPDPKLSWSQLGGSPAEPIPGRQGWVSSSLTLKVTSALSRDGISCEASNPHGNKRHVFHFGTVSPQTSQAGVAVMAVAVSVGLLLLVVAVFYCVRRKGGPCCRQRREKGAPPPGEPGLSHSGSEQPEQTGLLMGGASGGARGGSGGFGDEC
Description: flow cytometry binding curve on live Kuramochi cells.

The target of experiment [3] is T2, recombinant human BCAM. The experiment can be described thus: ELISA on recombinant BCAM; given as affinity.
For experiment [4], the target named is T3, BCAM. Description: flow cytometry on live Kuramochi cells; given as affinity.
The target of experiment [5] is T3, BCAM. Description: flow cytometry on live cells; given as affinity.

Broadly, the EC50 is the concentration at which the effect is half-maximal.

B1: a-Her2 (1A51) VHH-hIgG1-Fc (Fc fusion)
chain: QVQLQESGGGLVQAGGSLRLSCAGSGRTFSLYSMGWFRQSAGKAREFVASINWNGEVTEYADSVKGRFIISKANANKTMSLQMNSLKFEDTGVYYCAAAPRFESTWLADYWGQGTQVTVSS[letters of human IgG1 Fc not shown]
notes: VHH fused to human IgG1-Fc; also called Ab a-Her2 (1A51); cluster A antibody
Consider B1, for which, in the experiment with Her2, the binding result is reported as “binds”.

B2: a-Her2 (1A100) VHH-hIgG1-Fc (Fc fusion)
chain: QVQLQESGGGLVQAGDSLKLSCAASGDTFSRYAMAWFRQAPGKEREFVAAVSWSGGITHYADSLKGRFTISRDSAKNTVYLQMNSLKPDDTAIYYCTQDTIPGGAAREFRGYWGQGTQVTVSS[letters of human IgG1 Fc not shown]
notes: VHH fused to human IgG1-Fc; also called Ab a-Her2 (1A100); cluster A antibody
In the case of B2, the binding result with Her2 is recorded as “binds”.

B3: a-Her2 (1A12) VHH-hIgG1-Fc (Fc fusion)
chain: QVQLQESGGGLVQAGGSLRLSCAASGRTISNAFMGWYHQAPGEQREFVATISTTGTTNYRNSVKGRFTISRDNAKNTVYLQMNNLKPEDMGTYYCRHFGYDVWGQGTQVTVSS[letters of human IgG1 Fc not shown]
notes: VHH fused to human IgG1-Fc; also called 1A12-hIgG1-Fc; Ab a-Her2 (1A12)
In the case of B3, in the experiment with Her2, the binding result is given as “binds”.

B4: a-BCAM VHH-hIgG1-Fc fusion construct (6N2_22) (Fc fusion)
chain: QVQLVESGGGLVQPGGSLRLSCAASGFTFSSYAMSWVRQAPGKGPEWVSAINSGGGSTSYADSVKGRFTISRDNAKNTLYLQMNSLKPEDTAVYYCAKSWTVRIGQIYHHPTDYWGQGTQVTVSS[letters of human IgG1 Fc not shown]
notes: also called 6N2_22-hIgG1-Fc; anti-BCAM VHH
Regarding B4, the half-maximal effective concentration (EC50) with recombinant human BCAM [1] was 3.5 nM; with BCAM [2], 7.2 nM; with recombinant human BCAM [3], roughly 4 nM; with BCAM [4], roughly 7 nM; with BCAM [5] it was 7 nM.
